# According to the supplement of paper PMC10126150:
# Values marked as one replicate rest on one cluster of the flow cell; about a third of the high ones do not repeat.
# System: ATP
# Assay: switch fluorescence ratio, 500 uM ATP over buffer (Cy3 cluster intensity, sum of 5 cycles each) (fold (ratio)); higher = stronger signal-on switching upon ATP binding; sequences stand for … in TCGTCGGCAGCGTCAGATGTGTATAAGAGACAGTTTTTTTTTTTTTTTTTTTTTTTTT…TC
# Conditions: aptamer strand: ATP DNA aptamer (quencher-CACCTGGGGGAGTATTGCGGAGGAAGG + anchor), 100 nM annealed; ATP concentration: 500 uM; one replicate
# Outline: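 Switching-strand clusters labelled with Cy3 on a modified Illumina MiSeq flow-cell were annealed to 100 nM quencher-labelled ATP aptamer, imaged in selection buffer, and re-imaged after 15 min with 500 uM ATP at 22 °C. This was done over five cycles with NaOH stripping and re-annealing in between. The fluorescence ratio is summed target-cycle over summed buffer-cycle Cy3 intensity per cluster, averaged per switch-domain sequence, excluding clusters outside 100-1000 RFU.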
# 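Also: ATP exposure 15 min at 22 °C before imaging.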
row,Sequence,switch fluorescence ratio
1,TTGGCTAGAA,0.999
2,CCTAACAGGC,1
3,GAACTAAGGT,1
4,CGGTTTACGC,0.945
5,GAAATAAACT,1.02
6,AAATGGCGCA,1.01
7,AACTCGGAGC,1.03
8,TTATTTTCGC,1.01
9,TACGTGTTC,0.981
10,TGAATTGTCA,0.994
11,CTGTGTTGAC,1.01
12,CAAGGGGCGC,1.03
13,AGGTCTGGCC,0.964
14,GAGATACAAA,1
15,CATAATATC,1.06
16,TGAAAAGAAT,0.988
17,AAGTTTGTCG,0.925
18,CGATGCCAAA,1.05
19,CTGGCTGTCG,1.01
20,TCCACCTGAT,1.05
21,TTGGATGACT,0.992
22,CCCCACACCC,1.58
23,CGCAGTCCT,1.09

row,Sequence,switch fluorescence ratio
1,AGTGCTGCCT,1.04
2,CTGAAGTGAC,2.27
3,GGCGATCTTA,1.02
4,GTAGTATACG,0.918
5,GGTGGTCTGG,0.944
6,TAGGATTAAG,0.961
7,CAAGCTACTA,1.14
8,ACAATTGGCT,1.04
9,CTTGATGCCC,0.96
10,GTGATAAAGT,0.998
11,AGTCTGGTTT,0.963
12,ATACAGCTAA,1.05
13,TGTGTGTAGG,1
14,TAGGTTCTGA,0.98
15,AGCGTACAAC,1.05
16,GGCGTTATTC,1.02
17,ATATCGTGAC,1.02
18,ATCCCTGCCT,1.16
19,GGTCATTCAG,0.975
20,GCCAAAATCC,1.07
21,CGGCGGAGCT,1.04
22,GCCAGTTGGT,1.04
23,GTGAGCGTAT,0.982

row,Sequence,switch fluorescence ratio
1,GGGGCATCTA,1.03
2,GCGGCCTCAT,1.03
3,GGACTAAAGC,1.03
4,CTAGGATGAT,1
5,CGATCTGTAA,1
6,TTTGACAGAC,1.14
7,CGTATGTATG,0.988
8,TACATATCCT,1.04
9,TGACGGTTAC,1.9
10,ATAGCATAGA,1.02
11,CTTGGACCT,1.31
12,ATTCTTTAA,0.973
13,AGTGGATATA,1.01
14,TTGAATGGGA,2.1
15,GTGGAAGGTG,1.38
16,TAACTAGAAC,1.01
17,TATACATCGA,1.01
18,TAAGGTACGG,1.06
19,GCTGTAGGGT,1.04
20,TCTAAGTAG,0.996
21,TCCTTACTAG,1.06
22,TTCATGATGG,1.01
23,TCTTATATAT,0.978

row,Sequence,switch fluorescence ratio
1,TGCGGGCGTG,0.972
2,CCCGCGGGAT,1.01
3,CCGCTGGTCT,1.32
4,ATAAATGATC,1.03
5,AATGTCATAA,0.966
6,GAAATATAAA,1.02
7,ATTGGACGAG,1
8,GCTGGTGGGC,1
9,TGCCGGGCAT,0.974
10,TGTATCGTAG,0.932
11,GGGAGAGGTC,1.07
12,ACGCCCAATT,1.04
13,GTTGTCGTTC,1.01
14,CAGTCTCTTG,0.972
15,GGATGCGTGG,1.02
16,TTATGGAGTG,0.944
17,GATGGAGAT,0.983
18,GCCACAGCGA,1.27
19,CGAGCGGACA,1.12
20,AGTGCGCTGT,1.03
21,GACTTCGAGA,1.08
22,TGTAAATCTA,0.989
23,GAGCGTGCGT,0.942

row,Sequence,switch fluorescence ratio
1,CATTCATGAC,1.03
2,TGCTGGGCGG,1.01
3,AGTAAGGCG,0.955
4,TTTCCAGGGT,1.02
5,TCATGGGAGG,0.974
6,CCAACGTTCA,1.07
7,TTGGGCCTGT,0.955
8,TATTTAGTCA,0.926
9,CAGGGTTCGC,0.999
10,ACGCTATTTT,1.21
11,TAAGGGCCCC,0.981
12,CTTCGTCCCA,2.43
13,CATATTTACG,1.07
14,TCGTTTGCCT,1.04
15,TCCGGTAC,3.72
16,TTAGGTAAAA,0.958
17,GCAATTATAA,1.07
18,CATGTGAGGG,0.974
19,CATAAGTTAA,1.01
20,CGCAGCTGGT,1.18
21,TTTTACGATA,1.11
22,GGTTGTCATA,1.02
23,ATACTTGAT,0.995

row,Sequence,switch fluorescence ratio
1,AAGCTCACGT,1.04
2,CTAGAAGCGT,0.978
3,AGATTCTAGA,1.08
4,ACGTAGAATC,1.18
5,GCGAATCTGG,0.979
6,ATAGTACCAT,1.08
7,TTGTCGAGAA,0.988
8,CTTGTAAAGC,1.06
9,TCACCGGGCG,1.12
10,TATCGTCTCG,0.993
11,GGCGTATGGG,0.979
12,AGGAGTAGCT,0.951
13,GAATAAACGG,1.12
14,CATTATTGTA,0.943
15,AAATGACTGT,0.93
16,GACGCTCAGA,1.07
17,GCACAATCGT,1.01
18,GGACACAGGG,1.16
19,ATATACGATA,1.09
20,GGAGTATGT,1
21,AAACGGGCGA,0.983
22,TTGTGAGCTA,1.02
23,GCGGTCCGCC,1.08

row,Sequence,switch fluorescence ratio
1,CAATTCGGGT,1.01
2,TTGGTAAACT,1.25
3,CCTCCTCTGG,2.18
4,CAGGCCTCTA,1.01
5,TGCAAGGTTC,1.08
6,AATACTCCTT,1.64
7,TTTAAACTCA,1.04
8,CCTGGCACTT,1.8
9,CTGATATGGA,1.03
10,ACACCTGGAA,1.07
11,GGGTCGTCTG,0.991
12,CCCAACGTAG,1.03
13,CCCTTCTGCA,1.06
14,CATGCAGATG,0.969
15,TTCAACCACT,1.17
16,TTTGTACAGT,1.05
17,GTCCCCGCCT,1.18
18,TGATTGCTGT,1.01
19,TTATTGCAG,0.966
